Data from publication PMC4336329 (PLoS ONE, 2015).
The whole screen tested about 310,000 compounds, of which about 2,200 (0.71%) showed an effect of 50% or more. The effect is printed as a negative number. The list shows a part of the results.

Biological target: human ether-à-go-go-related gene (hERG) potassium channel (human, UniProt Q12809)
Assay: primary screen, population patch clamp on CHO cells stably expressing hERG

human ether-à-go-go-related gene (hERG) potassium channel, sequence (Q12809 whole entry, looked up): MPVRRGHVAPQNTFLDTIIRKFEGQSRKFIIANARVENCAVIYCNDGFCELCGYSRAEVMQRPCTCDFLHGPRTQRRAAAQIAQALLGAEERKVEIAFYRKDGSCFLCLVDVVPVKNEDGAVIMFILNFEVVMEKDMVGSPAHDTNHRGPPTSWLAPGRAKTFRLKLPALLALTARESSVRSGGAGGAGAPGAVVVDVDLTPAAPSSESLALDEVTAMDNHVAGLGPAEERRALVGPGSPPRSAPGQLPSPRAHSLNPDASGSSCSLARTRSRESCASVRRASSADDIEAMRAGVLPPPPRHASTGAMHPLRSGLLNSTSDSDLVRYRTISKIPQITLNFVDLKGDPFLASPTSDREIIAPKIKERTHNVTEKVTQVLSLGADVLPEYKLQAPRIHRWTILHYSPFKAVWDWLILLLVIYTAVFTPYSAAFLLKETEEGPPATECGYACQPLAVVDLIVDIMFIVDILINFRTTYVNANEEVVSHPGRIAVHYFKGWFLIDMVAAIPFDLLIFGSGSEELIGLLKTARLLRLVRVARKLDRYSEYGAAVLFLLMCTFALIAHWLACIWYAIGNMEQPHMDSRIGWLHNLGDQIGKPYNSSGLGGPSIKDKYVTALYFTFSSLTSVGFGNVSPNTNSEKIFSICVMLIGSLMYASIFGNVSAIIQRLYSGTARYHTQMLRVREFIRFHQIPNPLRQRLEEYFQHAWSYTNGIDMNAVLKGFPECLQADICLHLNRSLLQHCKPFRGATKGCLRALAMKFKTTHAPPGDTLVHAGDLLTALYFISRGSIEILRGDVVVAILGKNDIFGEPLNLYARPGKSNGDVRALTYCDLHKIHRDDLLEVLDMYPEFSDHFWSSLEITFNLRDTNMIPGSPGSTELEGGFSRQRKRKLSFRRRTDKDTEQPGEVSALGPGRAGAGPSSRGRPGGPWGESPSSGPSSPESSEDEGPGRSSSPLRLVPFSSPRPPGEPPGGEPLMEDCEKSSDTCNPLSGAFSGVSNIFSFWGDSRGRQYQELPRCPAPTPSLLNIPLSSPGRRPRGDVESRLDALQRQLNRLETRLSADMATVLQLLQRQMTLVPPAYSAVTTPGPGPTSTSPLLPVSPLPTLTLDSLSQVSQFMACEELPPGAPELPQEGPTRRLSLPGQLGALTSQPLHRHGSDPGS

SMILES	hERG current change (%, negative = inhibition) at 1uM [%]
COc1ccc(CCC(=O)Nc2ccc(OC)c(S(=O)(=O)N3CCCCC3)c2)cc1OC	-1.26
c1ccc2[nH]c(-c3ccnc4ccccc34)nc2c1	6.78
Clc1ccc(N2N=C(c3cccs3)CC2c2ccco2)cc1 (centres unmarked)	0.328
CC(C)c1nnc(NC(=O)CCC(=O)NCc2ccc3c(c2)OCO3)s1	12.4
COc1ccccc1/C=C/C(=O)Nc1cccc(C(C)=O)c1	4.4
Cc1cc(S(=O)(=O)n2cnc3ccccc32)c(C)cc1Cl	6.78
CCN1CCC(=NNC(=O)c2ccco2)CC1	1.64
COc1cccc(NC(=O)CN(c2ccc3c(c2)OCO3)S(C)(=O)=O)c1	14.1
Cc1ccccc1NC(=S)N(CCCN1CCC(C)CC1)Cc1ccco1	-32.6
CCCCCC(=O)Nc1ccc(C(=O)N/N=C/c2ccc([N+](=O)[O-])cc2)cc1	13.9
C=COC(=O)c1sc2nc(C)cc(C)c2c1N	19.7
CC(=O)N1CCc2cc(S(=O)(=O)C(C)CC(=O)Nc3ccc(OC(F)(F)F)cc3)ccc21 (centres unmarked)	2.41
Cc1ccc(C(=O)N[C@H](C(=O)OCc2cc(=O)oc3cc(C)ccc23)C(C)C)cc1	1.31
O=C(NCc1nnc(SCC(=O)N2CCCc3ccccc32)n1-c1ccccc1)c1cccc2ccccc12	17.4
COc1ccc(C(=O)CSc2nnc(-c3ccoc3C)n2CC2CCCO2)cc1 (centres unmarked)	4.78
COc1cc(C)ccc1OCCON1C(=O)CCC1=O	9.55
CCOc1ccc(Cc2nc(C)c(CC(=O)N3CCOCC3)c(=O)[nH]2)cc1	15.5
CC(=O)Oc1ccc2occ(C(=O)c3ccccc3)c2c1	8.49
CC1(C(=O)N2CC3(CC(c4ccccc4)=NO3)C[C@H]2C(=O)NCC(N)=O)CC1 (some centres unmarked)	3.64
Cc1ccc(S(=O)(=O)NCCC(=O)NC(C)c2ccccc2)cc1 (centres unmarked)	13.1
Cc1cc(C)c(S(=O)(=O)N2CCN(C(=O)C3CCCO3)CC2)c(C)c1 (centres unmarked)	2.22
Cc1cc2cc(C(c3nnnn3Cc3ccco3)N3CCc4ccccc43)c(=O)[nH]c2cc1C (centres unmarked)	6.4

SMILES	hERG current change (%, negative = inhibition) at 1uM [%]
Cc1oc(/N=C/c2ccc(F)cc2)c(C#N)c1C	14.9
CC1=Nc2ccccc2N=C(NC(=O)c2ccccc2)C1c1ccccc1 (centres unmarked)	3.66
COc1ccc(S(=O)(=O)Nc2ccc3c(c2)n(C)c(=O)n3C)cc1	10.2
CCCCCOc1ccc(C(=O)NCC(=O)NCC(=O)OCC)cc1	4.57
CC1(C)NC(=O)N(CC(O)Cn2c3ccccc3c3ccccc32)C1=O (centres unmarked)	7.68
CS(=O)(=O)N(CCc1ccccc1)CC(=O)N1CCN(Cc2ccccc2)CC1	-0.666
CC(C)OC(=O)CC(=O)CSc1nc2c(cc1C#N)CCCCCC2	14.9
N#CC(C#N)=C/C(C#N)=C(/N)N1CCN(c2ccc(Cl)cc2)CC1	-2.49
CC12CCC(=O)N1C(C(=O)NNC(=O)c1ccccc1)CS2 (centres unmarked)	3.15
CCC(C(=O)NC1CCCC1)n1nc(C)n2c(cc3occc32)c1=O (centres unmarked)	11.1
COc1cccc2c(=O)c(C/C=C(/C)Cl)c(C)[nH]c12	13.4
O=C(c1cnn2c(C(F)(F)F)cc(-c3ccco3)nc12)N1CCCCCC1	4.89
Cc1ccc(Cn2c(C3CCCN3c3nc(-c4cc(Cl)c(N)c(Cl)c4)cs3)nc3cc(Cl)c(Cl)cc32)cc1 (centres unmarked)	15
CCN(CC)c1ccc(NC(=O)C(C)C)cc1	8.82
CC(C)(C)C(=O)N(Cc1nc2ccccc2c(=O)[nH]1)Cc1cccs1	3.2
COc1ccc(OC)c(/C=N/n2c(-c3n[nH]c4c3CCC4)n[nH]c2=S)c1	7.55
CCOC(=O)N1CCN(c2nc(C)c3c(n2)CCCC3=O)CC1	18.8
Cn1c(=O)c2c(ncn2CC(=O)OCC(=O)Nc2sccc2C(N)=O)n(C)c1=O	1.3
CCOC(=O)C1(CCc2ccccc2)CCN(C(=O)c2cc(C)nc(C)n2)CC1	2.29
O=C(O)c1ccc(OC2CSC2)cc1	20.5
CC1(C)Cc2c(ccc3ccccc23)/C(=C/C(=O)N2CCCCC2)N1.Cl	8.34
Cc1ccc(OCCC(=O)OCC(=O)c2ccc3c(c2)NC(=O)CO3)cc1	0.269

SMILES	hERG current change (%, negative = inhibition) at 1uM [%]
O=C(CSc1nnc(Cn2nnc3ccccc32)o1)N(Cc1ccc(Cl)cc1)c1ccccc1	2.94
Cc1ccc(NC(=O)C2CCC(=O)N2)cc1C (centres unmarked)	12.1
O=C(CCNC(=O)c1ccc([N+](=O)[O-])cc1)NNC(=O)c1ccccc1F	10.5
Cc1nnc(SCc2cccc(Cl)c2)n(N)c1=O	7.4
O=C(Nc1ccc(Oc2ccc(Br)cc2)cc1)C1=CC=CN2CCS(=O)(=O)N=C12	4.25
O=C(Nc1nnc(-c2ccccc2)o1)c1nc2ccccc2s1	15
Cc1ccc(N2C(=O)C3N=NN(CC(=O)N4N=C(c5ccccc5)CC4c4ccccc4)C3C2=O)cc1 (centres unmarked)	1.61
O=C(CN(C(=O)CCC(=O)Nc1ccccn1)c1ccc(F)cc1)NCc1ccco1	13.1
O=C(CN1CCCc2ccccc21)NC(=O)NCc1ccco1	11.5
CCCCCCCCCCS(=O)(=O)N/N=C/c1ccc([N+](=O)[O-])cc1	12.9
COc1ccc(N2C(=O)C(F)(F)C2c2ccc(C)cc2)cc1OC (centres unmarked)	6.63
Cn1c(CC(=O)Nc2ccc(F)cc2)nnc1SCC(=O)NC1CCCCC1	20
CCN(CC)C(=O)c1sc(NC(=O)c2cccc([N+](=O)[O-])c2)c(C#N)c1C	7.41
Cc1cc(/C=N/NC(=O)c2ccc(CN3CCOCC3)cc2)c(C)n1-c1ccccc1	-8.78
O=C(COc1ccccc1Cl)N1CCc2ccccc2C1	18.6
Fc1ccc(N2CCN(C(c3cccs3)c3nnnn3C3CCCC3)CC2)cc1 (centres unmarked)	-12.1
CCC(=O)N1CCc2cc(OC)c(OC)cc2C1COc1ccc(C(=O)OC)cc1 (centres unmarked)	5.53
Cc1nc(N2CCOCC2)c2c(C)c(C(=O)Nc3ccc(C(F)(F)F)cc3)sc2n1	-2.56
CCC(C)c1ccc(-n2c(=O)c3ccccc3n3c(=S)[nH]nc23)cc1 (centres unmarked)	14.9
C[n+]1cnn2c1SCC1(COC1)C2.[I-]	8.87
COc1cccc(NC(=O)CN(C)C(=O)CSc2ccc3c(c2)OCCO3)c1	4.45
Cc1cc(F)ccc1NC(=O)c1ccc(NS(=O)(=O)c2cc(C(C)(C)C)ccc2C)cc1	9.77

SMILES	hERG current change (%, negative = inhibition) at 1uM [%]
Cc1csc(Nc2ccccc2)[n+]1-c1ccccc1.[Br-]	7.89
CCCCNC(=O)/C(C#N)=c1\s/c(=C\c2ccccc2OC(F)F)c(=O)n1CCCOC	19.5
O=C(CSc1cc(Cl)ccc1Cl)NCCCn1ccnc1	13
COC(=O)COc1ccc(Oc2cc(C)nc(SC)n2)nn1	9.92
CCOc1ccc(/C(O)=C2/C(=O)C(=O)N(CCCn3ccnc3)C2c2cccs2)cc1Cl (centres unmarked)	2.45
CCOC(=O)C(C)n1cnc2c(nnn2Cc2ccc(Cl)cc2)c1=O (centres unmarked)	-5.02
CN(C)C(=O)c1ccc(NC(=O)COC(=O)c2cc(S(=O)(=O)N(C)C)ccc2N2CCCC2)cc1	-9.76
COc1cccc(NC(=O)CN(Cc2ccccc2)S(C)(=O)=O)c1	8.68
COC(=O)c1ccc(CSc2nnc(CNC(=O)c3ccc(OC)cc3)o2)o1	16.3
CCOC(=O)c1c2n(c3ccc(O)cc13)CCCCC2	8.66
CCOC(=O)C1CCN(C(=O)c2ccc(S(=O)(=O)Nc3ccccc3OC)cc2)CC1	0.429
COc1ccc(C(=O)/C=C/c2cn(CC(O)CN3CCOCC3)c3ccccc23)cc1 (centres unmarked)	11.1
Cc1ccc(OCC(=O)N/N=C\c2cn(Cc3ccccc3)c3ccccc23)cc1C	7.2
COc1ccc([C@H]2CC(=O)C=C(/C=C/c3ccc(C(F)(F)F)cc3)C2)cc1	-14.1
COc1ccc(CN(C(=O)c2cccs2)c2nccs2)cc1OC	12.2
COc1ccccc1CN(C)C(=O)c1ccccc1SCC(=O)N1CCCC1	20.5
Cc1cccc(CNS(=O)(=O)c2ccc(-c3ccc(=O)[nH]n3)s2)c1	10.9
COCCN1CCCC(CNCc2cn(C)nc2-c2ccc(Oc3ccccc3)cc2)C1 (centres unmarked)	8.37
CCOC(=O)CSc1nnc(CSc2nc3ccccc3c(=O)[nH]2)n1-c1ccccc1	10.6
CCC(C)c1ccccc1N1CC(C(=O)Nc2cc(S(=O)(=O)N3CCOCC3)ccc2OC)CC1=O (centres unmarked)	8.44
